Source: PubChem BioAssay AID504333 (National Center for Advancing Translational Sciences (NCATS), 2011)
Screen size: about 360,000 compounds; about 16,000 (4.4%) were called active. Inconclusive results, whose numbers are uncertain, are shown with a selection of clear calls. Calls follow the shape of the dose curve; as a rule, active = well fitted inhibition curve with a large enough effect; inconclusive = small, poorly fitted or top-dose-only effect; inactive = no such curve, though single readings can be large or run the other way. Potencies of inconclusive entries are doubtful fits and often do not repeat.
Also: nearly all actives have a fitted effect of over 60% in size.
Potency is read from the fitted curve at half-maximal effect; tags tell the direction and shape of the fitted curve.

Each compound was assayed against Bromodomain adjacent to zinc finger domain protein 2B (Homo sapiens) (UniProt Q9UIF8) (assay: qHTS Assay for Inhibitors of BAZ2B). Conditions: AlphaScreen BAZ2B-H3K14Ac peptide displacement; series mostly up to 114 µM.
Sequence of UniProt Q9UIF8 (Q9UIF8 whole entry, looked up, the tested form may be a part): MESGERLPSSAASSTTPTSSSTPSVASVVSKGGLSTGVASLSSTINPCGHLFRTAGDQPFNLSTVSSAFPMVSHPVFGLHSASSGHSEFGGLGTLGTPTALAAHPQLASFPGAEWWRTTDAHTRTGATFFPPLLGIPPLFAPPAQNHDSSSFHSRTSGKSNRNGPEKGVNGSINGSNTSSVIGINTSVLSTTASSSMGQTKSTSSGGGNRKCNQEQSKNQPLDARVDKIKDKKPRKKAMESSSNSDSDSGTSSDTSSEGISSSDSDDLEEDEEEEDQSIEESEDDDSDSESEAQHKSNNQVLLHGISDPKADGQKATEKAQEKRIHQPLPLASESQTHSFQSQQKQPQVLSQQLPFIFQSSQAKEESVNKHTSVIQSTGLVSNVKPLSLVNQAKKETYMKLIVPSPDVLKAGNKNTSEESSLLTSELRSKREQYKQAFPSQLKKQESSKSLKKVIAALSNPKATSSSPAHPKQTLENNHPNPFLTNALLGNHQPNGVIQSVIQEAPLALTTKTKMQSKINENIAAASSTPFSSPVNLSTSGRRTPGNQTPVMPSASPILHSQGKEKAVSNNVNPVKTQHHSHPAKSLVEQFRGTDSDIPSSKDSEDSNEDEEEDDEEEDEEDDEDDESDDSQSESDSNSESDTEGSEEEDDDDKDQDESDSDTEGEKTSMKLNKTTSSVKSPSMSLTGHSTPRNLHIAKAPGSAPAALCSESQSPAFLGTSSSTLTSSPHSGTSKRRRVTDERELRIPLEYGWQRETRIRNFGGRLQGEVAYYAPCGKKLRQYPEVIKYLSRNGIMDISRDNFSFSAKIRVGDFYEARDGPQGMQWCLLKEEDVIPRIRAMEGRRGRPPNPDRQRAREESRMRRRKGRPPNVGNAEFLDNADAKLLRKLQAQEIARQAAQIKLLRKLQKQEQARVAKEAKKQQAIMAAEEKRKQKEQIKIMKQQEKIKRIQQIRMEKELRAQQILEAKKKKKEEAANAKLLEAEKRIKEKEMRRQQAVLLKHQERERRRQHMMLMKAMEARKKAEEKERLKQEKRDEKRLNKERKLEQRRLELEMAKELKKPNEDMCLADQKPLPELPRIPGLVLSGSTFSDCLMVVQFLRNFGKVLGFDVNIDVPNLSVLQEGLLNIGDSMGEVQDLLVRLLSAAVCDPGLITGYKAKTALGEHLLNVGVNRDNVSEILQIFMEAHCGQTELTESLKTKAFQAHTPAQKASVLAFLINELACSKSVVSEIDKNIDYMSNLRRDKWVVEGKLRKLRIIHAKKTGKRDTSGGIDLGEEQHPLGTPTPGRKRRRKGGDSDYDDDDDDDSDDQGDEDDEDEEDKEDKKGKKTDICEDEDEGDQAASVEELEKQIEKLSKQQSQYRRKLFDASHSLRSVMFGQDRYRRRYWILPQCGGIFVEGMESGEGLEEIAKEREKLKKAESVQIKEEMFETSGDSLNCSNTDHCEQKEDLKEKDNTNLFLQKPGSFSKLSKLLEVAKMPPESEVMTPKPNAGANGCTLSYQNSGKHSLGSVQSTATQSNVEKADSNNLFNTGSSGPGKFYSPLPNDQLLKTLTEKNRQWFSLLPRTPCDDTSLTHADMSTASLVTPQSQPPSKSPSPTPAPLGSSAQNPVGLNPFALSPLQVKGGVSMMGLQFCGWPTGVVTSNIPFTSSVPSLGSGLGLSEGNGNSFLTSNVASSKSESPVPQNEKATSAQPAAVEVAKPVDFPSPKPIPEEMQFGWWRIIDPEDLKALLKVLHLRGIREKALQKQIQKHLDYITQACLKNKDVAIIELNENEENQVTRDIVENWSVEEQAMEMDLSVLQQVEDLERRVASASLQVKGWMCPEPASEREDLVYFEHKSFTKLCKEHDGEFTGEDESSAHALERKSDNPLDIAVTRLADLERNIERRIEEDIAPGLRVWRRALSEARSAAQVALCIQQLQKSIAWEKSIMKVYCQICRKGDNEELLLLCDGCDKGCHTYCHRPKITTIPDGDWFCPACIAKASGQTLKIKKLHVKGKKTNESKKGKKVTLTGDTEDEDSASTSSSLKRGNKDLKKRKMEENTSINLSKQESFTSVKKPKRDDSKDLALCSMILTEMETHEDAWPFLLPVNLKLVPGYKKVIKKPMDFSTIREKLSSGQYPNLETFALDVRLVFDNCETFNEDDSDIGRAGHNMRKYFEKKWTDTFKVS
In short: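 AlphaScreen displacement: compounds (up to 110uM) incubated 30 min at room temperature with a preformed 50 nM BAZ2B/50 nM biotinylated H3K14Ac peptide complex in PBS pH 7.4 with Tween-20. Donor and acceptor beads at 10 ug/mL final added, 20 min light-protected before reading.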
With `COC(=O)/C(=C\c1ccc([N+](=O)[O-])o1)NC(=O)c1ccccc1` the Potency was “inactive”. `CCOC(=O)c1c(CC(C)C)csc1/N=C/C1C(=O)CCCC1=O` was tested, and the Potency was inconclusive: 63.1 µM [inhibitor, partial curve, poor fit]. With `COc1ccc(Nc2nc(-c3sc(N)nc3C)cs2)cc1` the Potency was active: 14.1 µM. `COc1ccc(/C=C2\CCc3ccccc3C2=O)c(OC)c1OC` was tested, and the Potency was inconclusive: 79.4 µM [inhibitor, single point]. With `COc1ccccc1C(=O)NC(CCSC)C(=O)N1CCN(C/C=C/c2ccccc2)CC1` (configuration not stated) the Potency was inconclusive: 79.4 µM [inhibitor, single point]. For `Cc1ccc(NC(=O)Cn2c(O)c(N=NC(=O)c3cc([N+](=O)[O-])ccc3O)c3ccccc32)cc1`, the Potency was inconclusive: 89.1 µM [inhibitor, single point]. In the case of `COCCCn1c(CCC(=O)O)ccc1-c1cccs1`, the Potency is reported as inconclusive: 70.8 µM [inhibitor, single point]. `Cn1c(=O)[nH]c(=O)c2c1nc(NCCO)n2CC(O)COc1ccccc1` (configuration not stated) was tested, and the Potency was “inactive”. In the case of `CCN(CC)c1ccc(/C=N/NC(=O)c2c(Cl)cnn2C)c(O)c1`, the Potency is reported as active: 79.4 µM. `O=C(CNC(=O)N1CC(=O)Nc2ccccc21)Nc1cccc(F)c1` was tested, and the Potency was “inactive”. For `Cc1cccc(C(=O)OCC(=O)N(CC(C)C)c2c(N)n(Cc3ccccc3)c(=O)[nH]c2=O)c1C`, the Potency was “inactive”. `Cc1ccc(C(=O)OCC(=O)NC(=O)c2ccccc2)o1` was tested, and the Potency was “inactive”. With `NC(=S)Nc1cccc2cccnc12` the Potency was inconclusive: 89.1 µM [inhibitor, single point]. For `O=C(Nc1cccc2ncccc12)C12CC3CC(CC(C3)C1)C2`, the Potency was inconclusive: 4.47 µM [inhibitor, single point]. For `Cc1c(O)ccc(C(=O)CN2CCN(c3ccccc3)CC2)c1O`, the Potency was inconclusive: 50.1 µM [inhibitor, partial curve]. In the case of `COc1ccc(N=Nc2nc(-c3ccccc3)c(-c3ccccc3)[nH]2)cc1`, the Potency is reported as active: 8.91 µM. For `COc1ccc(OCCSc2nnc(Cc3cccc4ccccc34)n2N)cc1`, the Potency was inconclusive: 50.1 µM [inhibitor, partial curve]. `O/C=c1\ccc2cccc3nc(C(F)(F)F)nc1c23` was tested, and the Potency was inconclusive: 79.4 µM [inhibitor, single point]. With `Cn1c(CCN2CCN(c3ccccn3)CC2)nc2cc(NS(=O)(=O)c3ccccc3)ccc21` the Potency was inconclusive: 79.4 µM [inhibitor, partial curve]. `CCN1CCN(CCCOc2ccccc2-c2ccccc2)CC1` was tested, and the Potency was active: 28.2 µM. In the case of `CC(=O)Nc1cc(NC(C)=O)cc(C(=O)NC(C)(C)C)c1`, the Potency is reported as inconclusive: 89.1 µM [inhibitor, single point]. `O=C(Nc1nnc(S(=O)(=O)N2CCCC2)s1)c1ccccc1F` was tested, and the Potency was “inactive”. With `Cn1c(N)c(S(=O)(=O)NCc2ccc(F)cc2)c(=O)n(C)c1=O` the Potency was “inactive”. For `Cc1cccc(NCC(=O)N/N=C\c2ccc[nH]2)c1`, the Potency was inconclusive: 79.4 µM [inhibitor, single point]. With `CCOc1ccc(C(C)=O)cc1COC(=O)c1ccccc1C(=O)N(C)Cc1ccccc1` the Potency was “inactive”. With `CN(CC(=O)Nc1cccc(F)c1)C(=O)c1ccccc1Cc1ccccc1` the Potency was “inactive”. With `Cc1nn(C)c(C)c1S(=O)(=O)Nc1ccc2c(c1)OCO2` the Potency was inconclusive: 79.4 µM [inhibitor, single point]. With `CC1(C)CC2(CC(c3ccc(F)cc3)c3ccc(O)cc3O2)NC(=S)N1` (configuration not stated) the Potency was inconclusive: 39.8 µM [inhibitor, partial curve]. `Cc1ccc2c(c1)C(=C(C#N)C#N)C(=O)N2CCN1CCOCC1` was tested, and the Potency was “inactive”. `Cc1ccc(SCCC(=O)OCC(=O)Nc2ccc(C(N)=O)cc2)cc1` was tested, and the Potency was “inactive”. For `CC(C)OC(=O)Nc1ccc2c(c1)N(C(=O)N1CCN(C)CC1)c1ccccc1CC2`, the Potency was active: 39.8 µM. For `O=S(=O)(c1ccccc1F)N1CCC(c2nc3ccccc3[nH]2)CC1`, the Potency was inconclusive: 89.1 µM [inhibitor, single point]. With `C/C(=N\NC(=S)Nc1ccccc1C)c1cc2ccccc2o1` the Potency was inconclusive: 31.6 µM [inhibitor, partial curve]. In the case of `Cc1sc2ccc3sccc3c2[n+]1C`, the Potency is reported as inconclusive: 56.2 µM [inhibitor, partial curve]. With `Cc1c(C(=O)N2CCN(S(=O)(=O)c3cc(F)ccc3F)CC2)oc2ccccc12` the Potency was active: 79.4 µM. For `O=c1c2sccc2nc(SCc2cc(=O)n3cc(Cl)ccc3n2)n1Cc1ccccn1`, the Potency was “inactive”. With `CCOc1ccc(C(CC(=O)Nc2cc(C)c(Cl)cc2OC)N2Cc3ccccc3C2=O)cc1OC` (configuration not stated) the Potency was inconclusive: 79.4 µM [inhibitor, single point]. For `COc1ccc(-c2[nH]ncc2CN2CCCN(c3ccccc3)CC2)c(F)c1`, the Potency was inconclusive: 79.4 µM [inhibitor, single point]. `Cn1c(CNc2nc(-c3ccccc3)cs2)nnc1SCC(=O)OC1CCCCC1` was tested, and the Potency was inconclusive: 70.8 µM [inhibitor, single point]. With `CC(=O)C1=C(C)NC(=O)NC1c1ccc(OC2CCCC2)cc1` (configuration not stated) the Potency was “inactive”. `C#Cc1ccc([C@H]2C=C(C(=O)N3CCN(Cc4ccccc4)CC3)O[C@@H](OCc3ccc(CO)cc3)C2)cc1` was tested, and the Potency was inconclusive: 70.8 µM [inhibitor, single point]. For `O=C1CC(c2ccco2)CC2=C1C1c3ccccc3C(=O)N1c1ccccc1N2` (configuration not stated), the Potency was inconclusive: 100 µM [inhibitor, single point]. With `CC(C)(C)c1ccc(-c2nc(S(=O)(=O)c3ccccc3)c(N3CCOCC3)o2)cc1` the Potency was inconclusive: 11.2 µM [inhibitor, full curve, poor fit]. For `COc1ccc(S(=O)(=O)N2CCOCC2)cc1NC(=O)c1ccc(=O)[nH]c1`, the Potency was “inactive”. In the case of `COc1ccc(C(=O)Nc2nnc(S(=O)(=O)N3CCC(C)CC3)s2)cc1OC`, the Potency is reported as inconclusive: 10 µM [inhibitor, full curve]. `N#C/C(=C\c1ccncc1)c1nc2ccccc2[nH]1` was tested, and the Potency was inconclusive: 39.8 µM [inhibitor, single point]. In the case of `COc1ccc(CC(=O)Nc2ccc(C(C)=O)cc2)cc1`, the Potency is reported as inconclusive: 89.1 µM [inhibitor, single point]. With `O=C(O)C1=CC(=C(c2ccc(O)c(C(=O)O)c2)c2ccc(O)c(C(=O)O)c2)C=CC1=O` the Potency was active: 1.12 µM. `COc1ccccc1NS(=O)(=O)c1cc([N+](=O)[O-])ccc1N/N=C/c1c[nH]c2ccccc12` was tested, and the Potency was inconclusive: 79.4 µM [inhibitor, single point]. With `CC(C)NC(=O)NC(=O)COC(=O)c1c2c(nc3ccccc13)CCC2` the Potency was inconclusive: 79.4 µM [inhibitor, single point]. For `COc1ccc(-n2c(-c3ccccc3)cc3c2CCCC3=O)cc1`, the Potency was active: 11.2 µM. `CC(=O)c1cccc(NC(=O)c2ccc(CN3CCc4ccccc4C3)cc2)c1` was tested, and the Potency was inconclusive: 89.1 µM [inhibitor, single point]. For `Cc1cc(OC(=O)c2cc([N+](=O)[O-])ccc2Cl)c([N+](=O)[O-])c(=O)[nH]1`, the Potency was inconclusive: 100 µM [inhibitor, single point]. In the case of `O=C(NCC(c1ccco1)N1CCc2ccccc21)c1ccccc1F` (configuration not stated), the Potency is reported as inconclusive: 89.1 µM [inhibitor, single point]. With `CC1CCC(NC(=S)NCCN(C)C)CC1` (configuration not stated) the Potency was active: 50.1 µM. With `COc1ccc(/C=N/n2c(-c3cc(C)[nH]n3)n[nH]c2=S)cc1` the Potency was “inactive”. In the case of `O=C(NCc1ccccc1)c1cc(S(=O)(=O)N2CCC3(CC2)OCCO3)ccc1F`, the Potency is reported as “inactive”. In the case of `CCCc1n(CC(O)COC2CCCCC2)c2ccccc2[n+]1C` (configuration not stated), the Potency is reported as inconclusive: 89.1 µM [inhibitor, single point]. In the case of `COc1ccc(NC2CCCN(C(=O)c3cc(C)nc4cc(F)ccc34)C2)cc1` (configuration not stated), the Potency is reported as “inactive”. In the case of `CC1=CC(=O)C(C(C)C)=CC1=NC(=O)c1ccc(C)cc1`, the Potency is reported as active: 39.8 µM. `O=[N+]([O-])c1cccc(/C=N/n2c(COc3ccccc3)n[nH]c2=S)c1` was tested, and the Potency was inconclusive: 44.7 µM [inhibitor, partial curve]. In the case of `COc1ccccc1CN1C[C@@H]2C[C@@H](c3[nH]c4ccc(C)cc4c3C)N3CCC[C@@]23C1=O`, the Potency is reported as inconclusive: 70.8 µM [inhibitor, single point]. `CCc1nc(Nc2ccc(N3CCN(C(C)=O)CC3)cc2)c2oc3ccccc3c2n1` was tested, and the Potency was active: 50.1 µM. With `CCCNC(=O)c1[nH]c(C)c(C(C)=O)c1C` the Potency was inconclusive: 44.7 µM [inhibitor, partial curve]. In the case of `O=C(O)CCSc1ncnc2sc(-c3ccccc3)cc12`, the Potency is reported as “inactive”. With `Cc1cc(-c2n[nH]c(=S)o2)c(C)n1-c1ccccc1` the Potency was inconclusive: 79.4 µM [inhibitor, single point]. In the case of `O=C(NCCN1CCOCC1)c1cc(Cl)ccc1Cl`, the Potency is reported as “inactive”. `Cc1nc(NS(=O)(=O)c2ccccc2)sc1C(=O)NN` was tested, and the Potency was inconclusive: 79.4 µM [inhibitor, single point]. For `COC(=O)c1ccc(CSc2nc3c(c(=O)n2-c2ccc(F)cc2)SCC3)o1`, the Potency was inconclusive: 35.5 µM [inhibitor, partial curve]. `Cc1ccccc1Cn1cc(NC(=O)c2cc(C3CC3)on2)cn1` was tested, and the Potency was inconclusive: 100 µM [inhibitor, single point]. `COc1ccc(NC(=O)C(=O)NCC(c2cccnc2)N2CCc3ccccc3C2)cc1` (configuration not stated) was tested, and the Potency was active: 10 µM. In the case of `Cc1cc(OCCN2CC(C)OC(C)C2)ccc1[N+](=O)[O-]` (configuration not stated), the Potency is reported as inconclusive: 89.1 µM [inhibitor, single point].
